Source: the supplement of paper PMC11417369
The other results are listed elsewhere or left out.

Each sequence was assayed on PF3D7_0420300 AP2 domain 1 (GST-tagged) (assay: gcPBM binding intensity (ln(normalized median fluorescence intensity)); higher = stronger DNA binding).
Procedure, shortened: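 The binding buffer was 1× PBS containing 1% milk, 0.2 mg/ml BSA, 0.5% salmon testes DNA and 0.03% Triton X-100. In it, GST-tagged P. falciparum DNA-binding domains expressed in E. coli were applied for 1 h to an Agilent 4 × 180k array of primer-extended double-stranded 36-bp intergenic genomic probes plus negative controls. Binding intensity, read with Alexa488 anti-GST antibody and a 488 nm scan, is the highest Masliner-normalised natural-log median intensity across replicate spots of either probe orientation.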

Sequence | gcPBM binding intensity (ln)
AAACCGAATTTACATGAATGTAAATTATGTTGTTTT [CACACA_negctrl_site1834] | 9.22
CAAGAATAAAAATACAAGCACACATGTATGAAATAT [CACACA_site3214] | 9.8
ATATACATATGTGTGTGTACTTATATCACATTTTTG [XGTACX_site3785] | 9.71
TTATGGATAAATAAATGTACGTTAAGATAACACAAA [XGTACX_site4208] | 9.27
TCGACAAAGGCATATACACACATTTGTAACATAAAT [CACACA_site4471] | 9.44
GTTTTTTTGTTTTAGTGTACCTAAAACTGCATGTAG [XGTACX_site294] | 9.41
TATATATATATATATTGTACATTTTTTTTTTTTTTT [XGTACX_site7891] | 8.9
AATTTCAAATTGTATGTGCACATGTAGAAGTACTTT | 9.39
GTGCCTTTAAAAAAAAGTACAAAAAAGAACGAATTA [XGTACX_site3714] | 9.03
AAAAAAAAAAAAAGCACACACACATATGAGTATATA [CACACA_site4682] | 9.87
TTTTCATTAAATATATATGCATACCATATGTACATT [GTGCAC_negctrl_site539] | 9.28
TATGTAAAGAGTAAGGGTACATGTATAATACGGCTC [XGTACX_site1283] | 9.69
AAATACTATATCAAGCGTACTTATTTCATGGTAATA [XGTACX_site7878] | 9.2
TTTAAAATATTTTCTTGTACGAAGGAACATTTCTTA [XGTACX_site4013] | 9.03
TATTTAATTACATGAACACACATTATGTATTTTTAA [CACACA_site2962] | 9.28
TTTTTATTTAATAATATATTAATCATATAAATAAAT [GTGCAC_negctrl_site210] | 8.82
TAAAAAAAAAAAACAAGTACATATATAAATATATAT [XGTACX_site7537] | 9.29
TGTATGCATATTTGATGTACGCACATATACTAATTT [XGTACX_site3159] | 9.28
TTTATATAAAAAAATTGTACATATTTATTATAAACA [XGTACX_site2124] | 8.93
ATAATAAATAAAATAACACACATATATAGATATATA [CACACA_site6224] | 9.74
TATATTCTTATTATTGCATGCTGCACGAAGATTTTC [TGCATGCA_site831] | 9.07
GTATGTTTGTTATGCACACAAATGCATCTTATTTCC [CACACA_site2690] | 9.61
CAAAATTTATGTAAAAGTACAAAAATATAGAAAGAT [XGTACX_site1122] | 9.47
TAATCGAAACAAAGAACATGCAAACATATACCTATA [TGCATGCA_site894] | 9.6
TGTGTTCATCTATGCACACGCATATATATTATTGTT [CACACA_site5985] | 9.47
